Results as given in PubChem BioAssay AID1159614 (National Center for Advancing Translational Sciences (NCATS), 2016).
Out of some 45,000 compounds screened, about 65 (0.1%) were called active. Calls come from the whole dose curve; as a rule, active = well fitted activation curve with a large enough effect; inconclusive = small, poorly fitted or top-dose-only effect; inactive = no such curve, though single readings can be large or run the other way. Some of the results follow.

These compounds were tested against Galactocerebrosidase (Homo sapiens) (UniProt P54803) (assay: A Novel Cell-Based Assay to Identify Small Molecules for B -Galactocerebrosidase). Details: 145M-Twi-hGALC-G270D cells (Twitcher mouse brain line with human GALC G270D), HMU-beta-Gal fluorescence, 48 h; series mostly up to 57.5 µM; activation: at the top concentration.
UniProt P54803, sequence (P54803 whole entry, looked up): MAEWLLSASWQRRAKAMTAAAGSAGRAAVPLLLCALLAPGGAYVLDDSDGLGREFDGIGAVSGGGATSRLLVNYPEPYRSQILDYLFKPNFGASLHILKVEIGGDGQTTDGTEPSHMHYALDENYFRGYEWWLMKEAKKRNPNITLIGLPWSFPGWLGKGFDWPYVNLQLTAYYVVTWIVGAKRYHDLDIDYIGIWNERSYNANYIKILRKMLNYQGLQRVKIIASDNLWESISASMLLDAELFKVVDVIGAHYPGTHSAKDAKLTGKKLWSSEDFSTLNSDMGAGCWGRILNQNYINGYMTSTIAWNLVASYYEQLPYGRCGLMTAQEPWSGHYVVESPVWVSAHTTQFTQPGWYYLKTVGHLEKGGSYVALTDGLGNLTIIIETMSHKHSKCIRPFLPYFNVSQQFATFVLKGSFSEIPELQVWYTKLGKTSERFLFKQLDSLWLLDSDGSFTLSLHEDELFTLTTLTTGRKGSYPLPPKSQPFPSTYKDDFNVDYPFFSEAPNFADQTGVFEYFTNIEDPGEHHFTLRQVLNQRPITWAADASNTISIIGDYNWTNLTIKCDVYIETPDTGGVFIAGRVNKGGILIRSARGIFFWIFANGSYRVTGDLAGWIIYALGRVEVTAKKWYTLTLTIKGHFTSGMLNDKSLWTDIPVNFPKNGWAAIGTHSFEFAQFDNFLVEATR
Procedure, shortened: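 Mutant human GALC (G270D), stably expressed in a Twitcher mouse brain cell line lacking endogenous GALC, is measured in live-treated cells via 6-hexadecanoylamino-4-methylumbelliferyl-β-galactoside hydrolysis (0.1 mM final, pH 5.2) with fluorescent detection.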
Note: 0% is about no effect; nearly all actives have a fitted effect of over 65% in size.

activation, inactive:
CC(=O)c1ccc(NC(=O)Cn2c(=O)c3cccn3c3ccccc32)cc1 -4.8%, O=C(NN1CCCC1)NS(=O)(=O)c1ccc(Cl)cc1 -14%, COc1ccc(-n2nc3c(N4CCCC(C(=O)NCc5cccc(F)c5)C4)nnc(C)c3c2C)cc1 (stereo not drawn) -3.85%, O=C(Oc1ccc(F)cc1)c1nc(SCc2ccccc2F)ncc1Cl -9.04%, Cc1oc2ncn(C)c(=O)c2c1C(=O)N1CCN(c2ccccc2)CC1 -12.9%, COc1ccccc1C(=O)NC1(C(F)(F)F)C(=O)Nc2c1c(=O)[nH]c(=O)n2-c1ccccc1 (stereo not drawn) -11.9%, Cc1ccc(C)c(OCCn2cc(C(=O)c3ccco3)c3ccccc32)c1 -21.9%, CCn1c(CNC(=O)C23CC4CC(CC(C4)C2)C3)nnc1SCC(=O)Nc1ccccc1 -18.1%, COc1cccc(CNC(=O)c2cc3c(s2)-c2c(C)cccc2OC3)c1 -19.2%, COc1ccc(-c2nc(CNS(=O)(=O)c3ccccc3)cs2)cc1 -5.46%, Cc1ccc2nc(N3CCN(C(=O)C4CC4)CC3)sc2c1 -14.3%, CC1CCCN(CCCNC(=O)c2cn(C)c3ccc(S(=O)(=O)N(C)C4CCCCC4)cc3c2=O)C1 (stereo not drawn) -17.9%, Cc1ccc(NS(=O)(=O)c2ccc3nc(-c4ccccc4)[nH]c3c2)c(Cl)c1 -14.6%, Cc1ccc2c(c1)-c1nc(-c3ccc4c(c3)NC(=O)CO4)cc(-c3ccc(Cl)cc3)c1CO2 -10.8%, Cn1c(=O)c2c([nH]c(=O)n2Cc2ccc(Cl)cc2Cl)n(C)c1=O -12.1%, Cc1ccc(NC(=O)Cn2cc3c(n2)CCCCC3)cc1 -6.03%, CCOC(=O)c1ccccc1NC(=O)c1cc2c(=O)oc3ccc(C)cc3c2s1 -39.5%, CC1=C(C(=O)N2CCN(c3cccc(C(F)(F)F)c3)CC2)C2(CCCCC2)OC1=O -18.7%, CCN(c1ccccc1)c1ncnc2c1cnn2-c1ccc(C)cc1C -7.39%, COc1ccccc1CNC(=O)CN1C(=O)CSc2ccc(S(=O)(=O)N3CCCCC3)cc21 -10.9%, COC(=O)c1c(Oc2ccc(C(C)=O)cc2)nnc(-c2ccccc2)c1-c1ccccc1 -35.4%, Cc1cccc(N2CCN(C(=O)c3c(C)oc4ncnc(N5CCCCC5)c34)CC2)c1C -15.6%, Cc1ccc(C)c(Nc2nc3c(S(=O)(=O)c4ccc(C(C)C)cc4)nnn3c3ccsc23)c1 -4.15%, CCc1ccc(C2CC(=O)Nc3cc4c(cc32)OCO4)cc1 (stereo not drawn) -44.5%, CCOC(=O)c1noc2nc(C)n(CC(=O)Nc3ccccc3F)c(=O)c12 -32.9%, Cc1ccc(S(=O)(=O)Nc2cccc(-c3cn4cccc(C)c4n3)c2)cc1 -22.4%, O=C(Nc1ccc(Cl)cc1Cl)c1cc(S(=O)(=O)N2CCc3ccccc32)ccc1F -3.01%, COc1ccc(OC)c2sc(N3CCN(C(=O)C4CC4)CC3)nc12 6.73%, CN1CCN(C2=Nc3ccccc3Oc3ccc(Cl)cc32)CC1 -8%, CC(C)CN(CCCNC(=O)CN1C(=O)CSc2ccc(S(=O)(=O)N3CCOCC3)cc21)CC(C)C -14.1%, Cc1ccccc1CCNC(=O)c1ccc2c(c1)c(C)c(C)n2Cc1ccccc1 -29.3%, CCOc1ccc(CNC(=O)CSc2nnc(C)c3c(C)n(-c4ccccc4)nc23)cc1 -17.6%, CCc1ccccc1N1C(=O)N(Cc2ccccc2C)c2ccccc2S1(=O)=O -8.77%, COc1ccc(S(=O)(=O)n2ccnc2)cc1C(C)(C)C 1.08%, COc1ccccc1NC(=O)c1cnc(SCC(=O)N2CCCc3ccccc32)n(C)c1=O -20.2%, COc1ccc(OC)c(-n2cnc3cc(C(=O)NC4CCCCCC4)ccc32)c1 -7.75%, CCOc1ccc(NC(=O)CC2C(=O)OCCN2CC)cc1 (stereo not drawn) -3.94%, COc1ccc(-c2nc(Cn3c(SCc4cccc(Cl)c4)nc4ccncc43)c(C)o2)cc1 -10%, CC1=C(c2ccc(F)cc2)S(=O)(=O)N=C1N1CCC(C(=O)NCCc2ccco2)CC1 -2.99%, Cn1cnc(S(=O)(=O)N2CCC(C(=O)NCc3ccccc3)CC2)c1 -9.55%, Cc1ccc(Sc2c(C)nn(C(=O)COc3ccccc3)c2C)cc1 -23.3%, Cc1cccc(Cn2c(C)c(C)c3cc(C(=O)NCc4ccco4)ccc32)c1 -10.5%, Cn1c2ccccc2c2cnn(CC(=O)NCc3ccc(Cl)cc3)c(=O)c21 -14.6%, CC(=O)Nc1ccccc1OCc1cc(=O)n2c3c(sc2n1)CCCC3 -8.77%, COc1ccc2[nH]c(=O)c(CN(C(=O)c3cccc(Cl)c3)c3ccccc3OC)cc2c1 2.99%, COc1ccc(S(=O)(=O)NCCc2csc3nc(-c4ccc(Cl)cc4)nn23)cc1C -26.1%, CS(=O)(=O)N1CCc2cc(S(=O)(=O)NCc3ccccc3Cl)ccc21 -13.6%, Cc1ccc(Cn2nc(C)c(NC(=O)c3cc(-c4ccc(F)cc4)on3)c2C)cc1 -12.8%, Cc1nn(C(=O)c2ccccc2)c(C)c1Sc1ccc(Cl)cc1 -1.38%, CCOc1ccc(NC(=O)Cn2c(=O)oc3cc(S(=O)(=O)NC4CCCC4)ccc32)cc1 -41.4%, Cc1ccc(NC(=O)Cn2c(C)cc(C)c(C#N)c2=O)cc1 0.377%, COc1cc(NC(=O)Cn2ccn(Cc3ccccc3OC)c(=O)c2=O)cc(OC)c1 -8.44%, CCOC(=O)c1c(S(=O)(=O)N2CCCC(C(=O)N(C)Cc3ccccc3)C2)c(C)n(C)c1C (stereo not drawn) -20.4%, Cc1cccc(-n2c(-c3ccco3)nc3c(cnn3-c3ccccc3C)c2=O)c1 27.6%, COc1ccccc1NC(=O)CSc1nc2ccccc2c(=O)n1CCC(=O)NC1CCCCC1 -12.2%, Cc1ccc(C(c2sc3nc(-c4ccco4)nn3c2O)N2CCOCC2)cc1 (stereo not drawn) -9.17%, O=C(CN1CCN(Cc2ccc(F)cc2Cl)S1(=O)=O)Nc1ccc(F)cc1 -3.32%, Cc1ccccc1NC(=O)C1CCC(CNS(=O)(=O)c2ccc3c(c2)C(C)(C)C(=O)N3C)CC1 (stereo not drawn) -10.2%, CCN(CC)CCOC(=O)C1(C2CCCCC2)CCCCC1 -18.4%, Cc1ccc(-n2ncc3c(N(C)Cc4ccccc4)ncnc32)cc1 -9.29%, Cc1cc(NS(=O)(=O)c2ccc(NC(=O)c3ccccc3F)cc2)nc(C)n1 0.417%, CCOc1ccc(CCNC(=O)c2cn(C)c3ccc(S(=O)(=O)N4CCOCC4)cc3c2=O)cc1OCC -3.85%

Potency, inactive:
CCCCOCCOCCOCc1cc2c(cc1CCC)OCO2
